Positions count from the first letter of the chain named. These are yes or no findings as the source states them, for the method shown. Binding seen in cells or lysates may run through a third protein. Some entries that bind do so weakly or less than the wild type. For some assays here: Sequences can lack the tags named with a protein.

The chains behind the UniProt entries cited, without tags or fusion partners.
UniProt Q06609: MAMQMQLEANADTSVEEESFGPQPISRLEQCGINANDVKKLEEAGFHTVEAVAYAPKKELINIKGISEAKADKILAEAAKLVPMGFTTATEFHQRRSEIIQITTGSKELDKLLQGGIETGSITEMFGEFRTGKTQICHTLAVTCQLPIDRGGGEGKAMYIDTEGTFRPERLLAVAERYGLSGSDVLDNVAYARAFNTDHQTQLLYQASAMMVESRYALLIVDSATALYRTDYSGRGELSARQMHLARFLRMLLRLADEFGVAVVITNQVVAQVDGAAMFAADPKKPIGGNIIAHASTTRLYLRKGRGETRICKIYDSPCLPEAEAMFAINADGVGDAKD
UniProt Q9BXW9: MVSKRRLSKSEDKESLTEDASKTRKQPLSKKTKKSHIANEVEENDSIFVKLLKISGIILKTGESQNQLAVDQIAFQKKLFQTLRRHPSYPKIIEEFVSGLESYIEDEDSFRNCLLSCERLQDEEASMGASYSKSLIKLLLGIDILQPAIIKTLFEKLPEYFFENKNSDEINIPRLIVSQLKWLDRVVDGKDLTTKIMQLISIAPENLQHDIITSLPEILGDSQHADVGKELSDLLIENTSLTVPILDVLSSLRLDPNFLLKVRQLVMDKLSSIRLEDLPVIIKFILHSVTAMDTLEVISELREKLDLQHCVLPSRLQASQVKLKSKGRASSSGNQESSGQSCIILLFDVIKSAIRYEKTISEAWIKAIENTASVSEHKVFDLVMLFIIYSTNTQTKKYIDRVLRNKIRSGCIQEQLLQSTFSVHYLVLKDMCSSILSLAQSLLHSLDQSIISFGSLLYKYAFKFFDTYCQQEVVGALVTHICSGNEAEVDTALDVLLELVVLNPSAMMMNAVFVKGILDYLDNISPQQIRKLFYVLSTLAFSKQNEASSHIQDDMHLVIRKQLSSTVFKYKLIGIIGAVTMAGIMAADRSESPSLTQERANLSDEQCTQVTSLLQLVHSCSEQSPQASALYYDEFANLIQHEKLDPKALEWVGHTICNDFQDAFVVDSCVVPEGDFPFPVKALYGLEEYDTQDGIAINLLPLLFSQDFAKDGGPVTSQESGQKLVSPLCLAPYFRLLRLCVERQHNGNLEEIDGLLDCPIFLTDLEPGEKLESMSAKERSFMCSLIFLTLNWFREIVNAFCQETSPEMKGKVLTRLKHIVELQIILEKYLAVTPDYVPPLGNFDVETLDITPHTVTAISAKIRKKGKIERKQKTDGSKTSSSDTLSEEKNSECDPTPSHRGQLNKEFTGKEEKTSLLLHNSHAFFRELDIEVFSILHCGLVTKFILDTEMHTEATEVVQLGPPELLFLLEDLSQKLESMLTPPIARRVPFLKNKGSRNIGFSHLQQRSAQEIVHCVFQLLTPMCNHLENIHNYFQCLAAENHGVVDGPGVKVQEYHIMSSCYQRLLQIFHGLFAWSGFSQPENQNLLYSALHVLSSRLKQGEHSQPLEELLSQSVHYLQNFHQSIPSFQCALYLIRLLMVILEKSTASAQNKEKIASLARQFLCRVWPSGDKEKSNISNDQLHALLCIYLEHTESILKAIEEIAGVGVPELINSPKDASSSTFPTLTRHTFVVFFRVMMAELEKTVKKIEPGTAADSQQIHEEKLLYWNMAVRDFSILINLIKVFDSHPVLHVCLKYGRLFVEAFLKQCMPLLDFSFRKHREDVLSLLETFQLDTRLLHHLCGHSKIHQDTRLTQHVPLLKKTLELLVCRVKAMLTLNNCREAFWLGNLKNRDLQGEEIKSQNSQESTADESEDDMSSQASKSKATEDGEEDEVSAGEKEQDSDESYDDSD

This passage reports binding results from article PMC11162786.

The target of test [1] is T1, GST-tagged wild type APLF (human) (UniProt Q8IW19).
T1 sequence: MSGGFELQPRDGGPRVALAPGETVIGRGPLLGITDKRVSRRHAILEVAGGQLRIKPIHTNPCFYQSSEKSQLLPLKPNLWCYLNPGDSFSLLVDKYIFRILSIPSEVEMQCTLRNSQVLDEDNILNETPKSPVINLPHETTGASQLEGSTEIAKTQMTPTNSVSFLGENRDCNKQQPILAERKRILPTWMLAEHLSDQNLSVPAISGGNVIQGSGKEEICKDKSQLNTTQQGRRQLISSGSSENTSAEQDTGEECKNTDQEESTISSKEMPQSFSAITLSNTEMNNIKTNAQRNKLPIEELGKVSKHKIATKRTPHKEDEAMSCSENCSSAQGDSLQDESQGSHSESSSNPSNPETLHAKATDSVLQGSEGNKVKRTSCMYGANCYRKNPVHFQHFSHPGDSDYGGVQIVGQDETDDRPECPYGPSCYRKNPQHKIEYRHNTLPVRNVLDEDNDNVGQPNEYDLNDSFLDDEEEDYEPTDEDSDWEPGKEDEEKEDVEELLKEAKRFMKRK
As to the kind of experiment: pull-down; GST-APLF fusion proteins on glutathione beads incubated with total HEK293T lysates (with or without cisplatin treatment) at 4°C for 3 h; wash 50 mM Tris pH 7.5, 150 mM NaCl, 1 mM EDTA, 0.1% Triton X-100; western blot; only the target purified.

Test [2] addresses T2, GST-APLF (1–110) (human) (UniProt Q8IW19).
T2 sequence: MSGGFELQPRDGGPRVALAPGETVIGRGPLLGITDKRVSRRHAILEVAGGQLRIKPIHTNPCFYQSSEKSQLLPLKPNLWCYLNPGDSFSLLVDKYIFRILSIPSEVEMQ
The description is as above.

Test [3] concerns the target T3, GST-APLF (1–200) (human) (UniProt Q8IW19).
T3 sequence: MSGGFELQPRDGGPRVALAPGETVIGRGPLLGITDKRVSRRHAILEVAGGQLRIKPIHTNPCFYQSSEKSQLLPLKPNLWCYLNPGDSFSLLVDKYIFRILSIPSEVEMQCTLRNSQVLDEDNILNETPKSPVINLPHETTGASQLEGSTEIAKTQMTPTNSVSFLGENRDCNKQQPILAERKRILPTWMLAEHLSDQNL
The test is described as above.

The target in test [4] is T4, GST-tagged APLF PBZ mutant (human) (UniProt Q8IW19).
T4 sequence: T1 sequence with C379A, C385A, C421A, C427A
Described as above.

For test [5], the target named is T5, APLF (endogenous) (human (endogenous; cell line not stated, all cell lines of the paper are human)) (UniProt Q8IW19).
T5 sequence: T1 sequence
As to the kind of experiment: co-IP; endogenous proteins, anti-APLF antibody, with or without cisplatin treatment; western blot. On the technique in general: Immunoblotting shows a protein as a band on a membrane.

Test [6] has as its target T6, FLAG-tagged APLF (WT) (human) (UniProt Q8IW19).
T6 sequence: T1 sequence
As to the kind of experiment: co-IP; HEK293T transfected with FLAG-APLF constructs, mock or 100 μM cisplatin for 2 h; Tween lysis buffer (100 mM KCl, 0.1% Tween-20), sonicated lysate; anti-FLAG and protein G-sepharose at 4°C; western blot.

The target in test [7] is T7, FLAG-tagged APLF PBZ mutant (C379A, C385A, C421A, C427A) (human) (UniProt Q8IW19).
T7 sequence: T1 sequence with C379A, C385A, C421A, C427A
Described as above.

Turning to RAD51 (from UniProt Q06609 1-339), the binding entry in test [1], in test [2], in test [3], in test [4], in test [5] and in test [6] was “binds” throughout. The binding result in test [7] is recorded as “binds”.
With FANCD2 (from UniProt Q9BXW9 1-1451), the binding entry in test [1] is “binds”; in test [2], “no binding”; in test [3] it was “binds”; in test [4], “binds”; in test [5], “binds”; in test [6], “binds”. For the same substance, the binding entry in test [7] was “binds”.
